Assay results taken from PMC4336329 (PLoS ONE, 2015).
Screen size: about 310,000 compounds; about 14,000 (4.5%) showed an effect of 50% or more. Effects have a minus sign here. Some of the results follow.
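Note: peak tail current of the secondary pulse compared with the same well before compound.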

The compounds below were run against human ether-à-go-go-related gene (hERG) potassium channel (human, UniProt Q12809) (assay: primary screen, population patch clamp on CHO cells stably expressing hERG).
Chain of human ether-à-go-go-related gene (hERG) potassium channel (Q12809 whole entry, looked up): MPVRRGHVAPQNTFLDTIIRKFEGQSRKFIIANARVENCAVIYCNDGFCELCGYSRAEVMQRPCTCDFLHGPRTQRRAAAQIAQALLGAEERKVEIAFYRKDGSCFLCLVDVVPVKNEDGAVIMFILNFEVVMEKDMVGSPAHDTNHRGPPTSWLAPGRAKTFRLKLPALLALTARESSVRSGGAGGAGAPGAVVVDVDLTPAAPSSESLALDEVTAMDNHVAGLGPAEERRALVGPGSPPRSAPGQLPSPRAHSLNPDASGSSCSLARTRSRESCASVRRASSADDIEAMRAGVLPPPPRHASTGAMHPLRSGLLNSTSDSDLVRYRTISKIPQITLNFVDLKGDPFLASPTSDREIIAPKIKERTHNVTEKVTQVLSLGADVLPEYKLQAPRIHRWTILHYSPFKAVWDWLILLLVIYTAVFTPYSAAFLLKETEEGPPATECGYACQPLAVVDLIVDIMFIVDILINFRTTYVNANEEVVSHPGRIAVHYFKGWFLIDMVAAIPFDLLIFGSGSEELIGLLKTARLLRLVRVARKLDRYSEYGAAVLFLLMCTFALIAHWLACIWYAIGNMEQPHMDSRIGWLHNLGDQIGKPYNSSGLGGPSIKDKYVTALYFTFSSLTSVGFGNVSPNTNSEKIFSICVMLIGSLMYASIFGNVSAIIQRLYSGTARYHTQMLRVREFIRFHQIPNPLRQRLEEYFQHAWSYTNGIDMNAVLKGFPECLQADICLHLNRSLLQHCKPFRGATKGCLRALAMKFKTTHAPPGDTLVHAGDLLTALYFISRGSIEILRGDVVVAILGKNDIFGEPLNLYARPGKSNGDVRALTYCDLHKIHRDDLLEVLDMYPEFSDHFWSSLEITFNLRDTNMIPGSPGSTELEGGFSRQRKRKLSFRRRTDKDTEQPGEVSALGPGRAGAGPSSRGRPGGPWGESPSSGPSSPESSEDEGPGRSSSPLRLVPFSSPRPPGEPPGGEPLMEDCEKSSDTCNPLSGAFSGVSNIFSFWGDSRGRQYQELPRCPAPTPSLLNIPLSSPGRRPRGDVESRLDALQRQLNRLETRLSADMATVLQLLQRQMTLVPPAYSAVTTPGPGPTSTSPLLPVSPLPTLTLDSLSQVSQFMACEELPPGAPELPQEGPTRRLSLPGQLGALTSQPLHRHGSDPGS
In the case of `NS(=O)(=O)c1ccc2nc(NC(=O)C3CCCO3)sc2c1` (stereo not shown), the “hERG current change (%, negative = inhibition) at 10uM” value is reported as 10.1%.
For `CCN(CC)S(=O)(=O)c1ccc(N2CC(C(=O)NCCC3=CCCCC3)CC2=O)cc1` (stereo not shown), the “hERG current change (%, negative = inhibition) at 10uM” value was -0.538%.
For `Cc1ccc(C(=O)N2CCOCC2)cc1[N+](=O)[O-]`, the “hERG current change (%, negative = inhibition) at 10uM” value was 18.8%.
With `CCOc1ccc(NC(=O)CCN2CCN(S(=O)(=O)c3cc(Cl)ccc3OC)CC2)cc1` the “hERG current change (%, negative = inhibition) at 10uM” value was -46.1%.
With `C/C(Cc1ccccc1)=N/NC(=O)CCCC(=O)N/N=C(/C)Cc1ccccc1` the “hERG current change (%, negative = inhibition) at 10uM” value was 18.1%.
For `COc1ccc(-c2ccc3ccccc3n2)cc1`, the “hERG current change (%, negative = inhibition) at 10uM” value was 20.5%.
In the case of `CCOC(=O)c1cnn(-c2ccccc2)c1NC(=O)CCl`, the “hERG current change (%, negative = inhibition) at 10uM” value is reported as 17.2%.
`COc1ccc2[nH]c3c(NCCCOC(C)C)ncnc3c2c1` was tested, and the “hERG current change (%, negative = inhibition) at 10uM” value was 9.68%.
With `O=C(c1sc2ccccc2c1Cl)N(Cc1ccccc1)C1CCS(=O)(=O)C1` (stereo not shown) the “hERG current change (%, negative = inhibition) at 10uM” value was 8.99%.
With `COc1ccc(NC(C)C(=O)N/N=C/c2c(O)ccc3ccccc23)cc1` (stereo not shown) the “hERG current change (%, negative = inhibition) at 10uM” value was 19.6%.
For `COc1ccc(OCc2cc(C(=O)NCCCc3ccccc3)no2)c(Cl)c1`, the “hERG current change (%, negative = inhibition) at 10uM” value was -6.31%.
In the case of `Nn1c(SCC(=O)Nc2ccc3c(c2)OCO3)nnc1C(F)(F)F`, the “hERG current change (%, negative = inhibition) at 10uM” value is reported as 5.02%.
With `Cc1nn(C)c(C)c1S(=O)(=O)N1CCC(C(=O)NC2CCCc3ccccc32)CC1` (stereo not shown) the “hERG current change (%, negative = inhibition) at 10uM” value was -11.2%.
In the case of `Cc1cc(C)c2c(c1)c(C)cc1nnc(SCC(=O)c3cccs3)n12`, the “hERG current change (%, negative = inhibition) at 10uM” value is reported as -2.98%.
With `Br.CC1(C(=O)CSc2nc3ccccc3s2)CCC(=O)O1` (stereo not shown) the “hERG current change (%, negative = inhibition) at 10uM” value was -2.67%.
For `O=C(O)c1ccc(NS(=O)(=O)c2cc(Cl)ccc2Cl)cc1O`, the “hERG current change (%, negative = inhibition) at 10uM” value was 9.53%.
`CCOC(=O)C(NC(=O)c1ccc(F)cc1)(Nc1nnc(C)s1)C(F)(F)F` (stereo not shown) was tested, and the “hERG current change (%, negative = inhibition) at 10uM” value was 2.19%.
`COc1ccccc1CNc1cncnc1` was tested, and the “hERG current change (%, negative = inhibition) at 10uM” value was 8.08%.
With `COc1ccc(Cl)cc1NC(=O)CCN1CCN(c2ccccc2C)CC1` the “hERG current change (%, negative = inhibition) at 10uM” value was 6.79%.
For `O=C(NCCc1ccc2c(c1)OCCO2)c1cc(F)cc(F)c1`, the “hERG current change (%, negative = inhibition) at 10uM” value was -6.1%.
For `CCOC(=O)C1C2C=CC3(CN(c4ccccc4CC)C(=O)C13)O2` (stereo not shown), the “hERG current change (%, negative = inhibition) at 10uM” value was 8.46%.
For `O=C(N/N=C/c1ccsc1)c1cc(O)cc(O)c1`, the “hERG current change (%, negative = inhibition) at 10uM” value was 18.8%.
For `O=S1(=O)NC2c3ccccc3CC2O1` (stereo not shown), the “hERG current change (%, negative = inhibition) at 10uM” value was 15.1%.
`Cc1ccc(S(=O)(=O)N2CCC(NC(=O)c3ccccc3)CC2)cc1` was tested, and the “hERG current change (%, negative = inhibition) at 10uM” value was 11.7%.
For `O=C(Nc1ccc2ncccc2c1)c1ccccc1Cl`, the “hERG current change (%, negative = inhibition) at 10uM” value was 26.5%.
`CCN1C(=O)[C@H]2[C@@H](c3ccc(Cl)cc3)N3C(=O)CN(Cc4ccccc4)C(=O)[C@@]3(C)[C@H]2C1=O` was tested, and the “hERG current change (%, negative = inhibition) at 10uM” value was 6.89%.
`CCn1c(=S)sc2c(=O)n(-c3ccccc3)c(SC)nc21` was tested, and the “hERG current change (%, negative = inhibition) at 10uM” value was -11.2%.
`CCn1c(=N)c(C(=O)NCCCOC)cc2c(=O)n3cccc(C)c3nc21` was tested, and the “hERG current change (%, negative = inhibition) at 10uM” value was -61.4%.
With `C=CCN1CN(Cc2ccco2)CNC1=S` the “hERG current change (%, negative = inhibition) at 10uM” value was -8.72%.
In the case of `CCOC(=O)N1CCC(NC(=O)Cc2ccccc2)CC1`, the “hERG current change (%, negative = inhibition) at 10uM” value is reported as 15.6%.
`O=C(CN1C(=O)/C(=C\c2cccc(Br)c2)Oc2ccccc21)NCC1CCCO1` (stereo not shown) was tested, and the “hERG current change (%, negative = inhibition) at 10uM” value was 20.5%.
With `CCCS(=O)(=O)N1CCCC(C(=O)Oc2ccc(OC)cc2)C1` (stereo not shown) the “hERG current change (%, negative = inhibition) at 10uM” value was 14.7%.
With `Cc1ccc(NC(=O)CCC(=O)c2cccs2)c(Br)c1` the “hERG current change (%, negative = inhibition) at 10uM” value was 10.5%.
With `CCCc1[nH]nc2c1C(c1cc(OC)cc(OC)c1)C(C#N)=C(N)O2` (stereo not shown) the “hERG current change (%, negative = inhibition) at 10uM” value was -19.2%.
With `CC1CCN(CCOc2ccc(OCc3ccccc3)cc2)CC1.O=C(O)C(=O)O` the “hERG current change (%, negative = inhibition) at 10uM” value was -70.9%.
With `COC(=O)c1cc2c(cc1Cl)N1CCCCCC1=NS2(=O)=O` the “hERG current change (%, negative = inhibition) at 10uM” value was -10.7%.
In the case of `CC(=O)c1ccc(NC(=O)COC(=O)c2ccc(F)cc2F)cc1`, the “hERG current change (%, negative = inhibition) at 10uM” value is reported as 16.4%.
`Cc1ccc(C(=O)c2ccc(C(F)(F)F)cc2)cc1` was tested, and the “hERG current change (%, negative = inhibition) at 10uM” value was 7.79%.
With `COc1ccc(C(=O)N(CCc2ccccc2)Cc2ccccc2)c(OC)n1` the “hERG current change (%, negative = inhibition) at 10uM” value was 2.9%.
`N=c1oc2ccccc2cc1C(=O)NCc1ccccc1` was tested, and the “hERG current change (%, negative = inhibition) at 10uM” value was -8.34%.
`CC1Cc2ccccc2N1C(=O)CSc1nccc(=O)[nH]1` (stereo not shown) was tested, and the “hERG current change (%, negative = inhibition) at 10uM” value was 18.1%.
With `Cc1cc2c(cc1S(=O)(=O)Nc1ccc(OC(F)(F)F)cc1)OCC(=O)N2` the “hERG current change (%, negative = inhibition) at 10uM” value was -42.5%.
In the case of `COc1cc2c(cc1OC)CN(CC(=O)NC(=O)NCc1ccco1)CC2`, the “hERG current change (%, negative = inhibition) at 10uM” value is reported as -14.7%.
In the case of `COc1ccc2c(c1)O[C@@H](c1cccc(C(F)(F)F)c1)[C@H](OC(=O)Nc1ccc(OC(F)F)cc1)C2=O`, the “hERG current change (%, negative = inhibition) at 10uM” value is reported as 18.7%.
`COc1ccc(C(=O)N/C(=C\c2ccco2)C(=O)NCc2ccco2)cc1` was tested, and the “hERG current change (%, negative = inhibition) at 10uM” value was -19.7%.
For `CC(=O)Nc1ccc(CNC(=O)C[N+]2(C)CCOCC2)cc1.[Cl-]`, the “hERG current change (%, negative = inhibition) at 10uM” value was 15.9%.
`COc1ccc(C(=O)N/C(=C/c2cccnc2)C(=O)N2CCOCC2)cc1OC` was tested, and the “hERG current change (%, negative = inhibition) at 10uM” value was 19.8%.
In the case of `O=C(O)C1=C(OCc2ccc(F)c(F)c2)C(=O)NCC1`, the “hERG current change (%, negative = inhibition) at 10uM” value is reported as 16.5%.
For `O=C(O/N=C\c1ccc(N2CCCCC2)c([N+](=O)[O-])c1)c1ccc(Cl)cc1Cl`, the “hERG current change (%, negative = inhibition) at 10uM” value was -1.17%.
With `CC(C)Oc1cccc(OCCN2C(=O)c3ccccc3C2=O)c1` the “hERG current change (%, negative = inhibition) at 10uM” value was -32%.
For `CC(Sc1nnc(-c2cccs2)n1N)C(=O)NCC1CCCO1` (stereo not shown), the “hERG current change (%, negative = inhibition) at 10uM” value was 1.5%.
With `CC(CC(=O)Nc1nncs1)c1ccccc1` (stereo not shown) the “hERG current change (%, negative = inhibition) at 10uM” value was 10.7%.
`Cc1cc(Cl)cc2sc(NC(=O)c3ccco3)nc12` was tested, and the “hERG current change (%, negative = inhibition) at 10uM” value was -14.6%.
For `Cc1cc(NC(=O)CSc2nnc(C)c(=O)[nH]2)no1`, the “hERG current change (%, negative = inhibition) at 10uM” value was 11.5%.
For `COc1ccc(/C(=N/Nc2ncnc3ccccc23)C(=O)O)cc1`, the “hERG current change (%, negative = inhibition) at 10uM” value was 20.9%.
`O=C1c2ccccc2C(=O)N1CC1c2ccccc2CCN1C(=O)C1CCCCC1` (stereo not shown) was tested, and the “hERG current change (%, negative = inhibition) at 10uM” value was -29.3%.
`CCOC(=O)N1CCN(C(=O)c2cccn3c(=O)c4cc(Cl)ccc4nc23)CC1` was tested, and the “hERG current change (%, negative = inhibition) at 10uM” value was -65.7%.
`Cc1cc2[nH]c(=O)c(=O)[nH]c2cc1S(=O)(=O)N1CCN(c2cccc(C(F)(F)F)c2)CC1` was tested, and the “hERG current change (%, negative = inhibition) at 10uM” value was 13.2%.
